Measurements taken from the supplement of paper PMC5919970.
Where a name gives a salt, the structure may show the parent alone. In all, about 2,000 compounds were measured (“fractional viability relative to vehicle”: median about 0.91, lowest 2% from about 0.045 on). The list shows a part of the results.

Tested on: TYKNU
Assay: fractional viability relative to vehicle; TYKNU is a high-grade serous ovarian cancer line; higher = less growth inhibition
Details: 72 h
Outline: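 TYKNU control cells or lentiCRISPRv2 knockout derivatives were seeded at 500 cells per well into drug-stamped 384-well plates holding a ~2100-compound library at 2 or 10 μM, in duplicate. Cells were grown at 37 °C in 5% CO2 in RPMI 1640 with 10% FBS, and drug treatment lasted 72 h. Viability was read by Cell Titer Glo luminescence. Duplicate treatment wells were averaged and normalised to duplicate control wells from the same plate position.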

[1] = 2uM, genotype: DNM1L knockout (sgDNM1L #1)
[2] = 2uM, genotype: sgCTRLA1 (non-targeting control)
[3] = 10uM, genotype: DNM1L knockout (sgDNM1L #1)
[4] = 10uM, genotype: sgCTRLA1 (non-targeting control)

Compound | fractional viability [1] | fractional viability [2] | fractional viability [3] | fractional viability [4]
N#Cc1ccc(-c2c(-c3ncn[nH]3)sc(N3CCOCC3)c2C#N)c(F)c1 | 0.627 | 0.584 | 0.282 | 0.225
C=C1c2cccc(O)c2C(=O)C2=C(O)[C@]3(O)C(=O)C(C(N)=O)=C(O)[C@@H](N(C)C)[C@@H]3[C@@H](O)[C@H]12 [Methacycline HCl] | 1.23 | 1.3 | 0.591 | 0.611
CC(C)(C)c1[nH]cnc1/C=c1\[nH]c(=O)/c(=C/c2ccccc2)[nH]c1=O [Plinabulin (NPI-2358)] | 0.179 | 0.133 | 0.261 | 0.201
Cn1c(=O)cc(N2CCC[C@@H](N)C2)n(Cc2cc(F)ccc2C#N)c1=O [Trelagliptin] | 0.882 | 1.1 | 0.859 | 0.871
COc1cc(/C=C/C(=O)N2CCN(CC(=O)N3CCCC3)CC2)cc(OC)c1OC [Cinepazide maleate] | 1.08 | 0.973 | 1.1 | 1.02
O=C(Nc1ccc(OC(F)(F)F)cc1)c1sccc1NCc1ccnc2ccccc12 | 0.926 | 0.906 | 0.215 | 0.181
CC(=O)Nc1cccc2c1c(Sc1ccc(Cl)cc1)c(C)n2CC(=O)O | 0.843 | 1.24 | 0.838 | 1.17
Nc1ncn([C@@H]2O[C@H](CO)[C@@H](O)[C@H]2O)c(=O)n1 [Azacitidine] | 1.08 | 1.12 | 1.12 | 1.03
CC(COc1ccccc1)N(CCCl)Cc1ccccc1 (stereo not drawn) [Phenoxybenzamine HCl] | 0.953 | 1.02 | 0.516 | 0.798
CCCNC(C)C(=O)Nc1ccccc1C (stereo not drawn) [Prilocaine] | 1.09 | 1.08 | 1.05 | 1.15
Cc1c(-c2ccnn2C)cc(C(=O)NCc2ccc(S(C)(=O)=O)cn2)c(=O)n1-c1cccc(C(F)(F)F)c1 [Alvelestat (AZD9668)] | 0.815 | 1.07 | 0.719 | 0.959
CC(C)(C)Cn1c(N)nc2ccc(-c3[nH]c(C(C)(C)C)nc3-c3ccc(F)cc3)nc21 | 0.941 | 0.92 | 0.684 | 0.879
CCCN[C@H]1CCc2nc(N)sc2C1 [Pramipexole] | 0.968 | 1.01 | 0.773 | 0.919
COc1ccc(C(=O)CC2(O)C(=O)Nc3c(Cl)ccc(Cl)c32)cc1 (stereo not drawn) | 0.264 | 0.243 | 0.175 | 0.186
O=C(NC1CCN(CCCCC2(C(=O)NCC(F)(F)F)c3ccccc3-c3ccccc32)CC1)c1ccccc1-c1ccc(C(F)(F)F)cc1 [Lomitapide Mesylate] | 0.573 | 0.79 | 0.0435 | 0.0328
CCOC(=O)c1ccc(OC(=O)CCCCCNC(=N)N)cc1 [Gabexate Mesylate] | 1.03 | 1.16 | 0.907 | 1.03
Clc1cccc(-c2nnnn2Cc2cccnc2)c1Cl | 0.755 | 0.927 | 0.755 | 0.73
COc1cccc(-c2ccc(NC(=O)C3=C(C(=O)O)CCC3)c(F)c2)c1 [Vidofludimus] | 0.738 | 1.09 | 0.325 | 0.468
Cc1cc(=O)oc2cc(O)ccc12 [4-Methylumbelliferone (4-MU)] | 0.943 | 1.2 | 0.901 | 1.1

Compound | fractional viability [1] | fractional viability [2] | fractional viability [3] | fractional viability [4]
C/C=C1/[C@H](O[C@@H]2O[C@H](CO)[C@@H](O)[C@H](O)[C@H]2O)OC=C(C(=O)OC)[C@H]1CC(=O)OCCc1ccc(O)c(O)c1 [Oleuropein] | 0.773 | 0.978 | 0.843 | 0.774
O=c1c(-c2ccc(O)cc2)coc2c([C@@H]3O[C@H](CO)[C@@H](O)[C@H](O)[C@H]3O)c(O)ccc12 [Puerarin] | 1.03 | 1.11 | 1.03 | 1.14
Cc1cc(C)cc(C(=O)NOCCCCCC(=O)NO)c1 | 0.213 | 0.312 | 0.0689 | 0.0801
Cc1cc([C@@H](C)Nc2ccccc2C(=O)O)c2nc(N3CCOCC3)cc(=O)n2c1 | 1.08 | 1.03 | 0.718 | 0.926
COCCOC(=O)C1=C(C)NC(C)=C(C(=O)OC/C=C/c2ccccc2)C1c1cccc([N+](=O)[O-])c1 (stereo not drawn) [Cilnidipine] | 0.972 | 1.13 | 0.596 | 1.01
CCOc1nc2cccc(C(=O)O)c2n1Cc1ccc(-c2ccccc2-c2noc(=O)[nH]2)cc1 [Azilsartan] | 1.2 | 1.03 | 0.93 | 0.962
COc1cc2nccc(Oc3ccc(NC(=O)C4(C(=O)Nc5ccc(F)cc5)CC4)cc3)c2cc1OC | 1.15 | 1.17 | 0.615 | 0.64
O=C(O)/C=C/c1ccc(Cn2ccnc2)cc1 [Ozagrel HCl] | 0.923 | 1.22 | 0.926 | 1.1
O=C(O)/C=C/c1ccc(Cn2ccnc2)cc1 [Ozagrel] | 0.939 | 1.1 | 0.816 | 1.07
CCCc1nc(C)c2c(=O)nc(-c3cc(S(=O)(=O)N4CCN(CC)CC4)ccc3OCC)[nH]n12 [Vardenafil HCl Trihydrate] | 0.995 | 1.1 | 0.774 | 1.05
CNC(=O)c1cc(COc2nnc(Nc3ccc(Cl)cc3)c3ccoc23)ccn1 [Telatinib] | 0.895 | 1.19 | 0.707 | 0.949
Oc1ccc(OCc2ccccc2)cc1 [Monobenzone] | 1.06 | 1.17 | 0.777 | 0.948
C[C@H]1C[C@H]2[C@@H]3CCC4=CC(=O)C=C[C@]4(C)[C@@]3(F)[C@@H](O)C[C@]2(C)[C@@]1(O)C(=O)CO [Betamethasone] | 1.25 | 1.06 | 1.23 | 1.08
CC(C)(Cc1ccc2ccccc2c1)NC[C@@H](O)COc1cccc(Cl)c1C#N | 0.854 | 1.1 | 0.585 | 0.0354
CCN1CCN(C(=O)N[C@@H](C(=O)N[C@@H]2C(=O)N3C(C(=O)O)=C(CSc4nnnn4C)CS[C@H]23)c2ccc(O)cc2)C(=O)C1=O [Cefoperazone] | 0.916 | 1.1 | 0.775 | 0.991
O=C(c1cn(Cc2cncn2Cc2ccc(Br)cc2)cc1-c1cccc2ccccc12)N1CCOCC1 | 0.241 | 0.344 | 0.248 | 0.224
CN(C)CCOc1ccc(/C(=C(/CCCl)c2ccccc2)c2ccccc2)cc1 [Toremifene Citrate] | 1.14 | 1.12 | 0.86 | 1.02
Cc1ccc(Cl)c(Nc2ccccc2C(=O)O)c1Cl [Meclofenamate Sodium] | 0.952 | 1.02 | 0.784 | 0.978
O=C(NCCO[N+](=O)[O-])c1cccnc1 [Nicorandil] | 0.973 | 1.02 | 0.931 | 0.953

Compound | fractional viability [1] | fractional viability [2] | fractional viability [3] | fractional viability [4]
COc1cc(O)c(CC=C(C)C)c(O)c1C(=O)/C=C/c1ccc(O)cc1 [Xanthohumol] | 0.939 | 0.888 | 0.453 | 0.423
Cc1cc(/N=N/c2ccc(S(=O)(=O)Nc3ccccn3)cc2)c(N)cc1O | 0.817 | 1.02 | 0.445 | 0.572
COc1ccccc1S(=O)(=O)Nc1ccc2c(c1)CN(C)C(=O)N2 | 0.871 | 0.896 | 0.502 | 0.699
Cc1nnc(NS(=O)(=O)c2ccc(N)cc2)s1 [Sulfamethizole] | 1.09 | 0.963 | 0.897 | 0.995
FC(F)c1nc2ccccc2n1-c1nc(N2CCOCC2)nc(N2CCOCC2)n1 | 0.749 | 0.873 | 0.406 | 0.437
C[C@@H]1C[C@H]2[C@@H]3CCC4=CC(=O)C=C[C@]4(C)[C@@]3(F)[C@@H](O)C[C@]2(C)[C@@]1(O)C(=O)CO [Dexamethasone (DHAP)] | 1.07 | 1.13 | 1.03 | 1.1
OC1(c2ccc(Cl)c(C(F)(F)F)c2)CCN(CCCC(c2ccc(F)cc2)c2ccc(F)cc2)CC1 [Penfluridol] | 0.601 | 0.806 | 0.0479 | 0.065
CC(C)Oc1ccc(C(=O)N[C@H](CNC(=O)CN(C)C)Cc2ccc(-c3cn4cccc([C@H](C)O)c4n3)cc2)cc1Cl | 0.413 | 0.508 | 0.29 | 0.438
O=C(O)CCCc1ccccc1 [Sodium Phenylbutyrate] | 0.968 | 1.13 | 0.839 | 1.06
Cc1cnc(NC(=O)C2=C(O)c3ccccc3S(=O)(=O)N2C)s1 [Meloxicam] | 1.1 | 1.16 | 1.12 | 1.1
CC1(C)O[C@@H]2C[C@H]3[C@@H]4CCC5=CC(=O)C=C[C@]5(C)[C@@]4(F)[C@@H](O)C[C@]3(C)[C@]2(C(=O)CO)O1 [Triamcinolone Acetonide] | 1.1 | 1.08 | 1.08 | 1.08
CCCCCCCCCCCCCCCC(=O)O[C@@H]1[C@@H](O)[C@@H](O)[C@@H]([C@H](NC(=O)[C@@H]2C[C@@H](CCC)CN2C)[C@H](C)Cl)O[C@@H]1SC [Clindamycin palmitate HCl] | 1 | 1.05 | 0.716 | 0.938
CNc1cccc(CCOc2ccc3c(c2)CN(CC(F)(F)F)C(=O)[C@H](CC(=O)O)C3)n1 | 0.56 | 0.811 | 0.598 | 0.639
CC(=O)Nc1ncc([N+](=O)[O-])s1 [Nithiamide] | 1.25 | 1.33 | 0.917 | 1.1
CCOCC(O)COc1ccc(NC(=O)CC[S+](C)C)cc1 (stereo not drawn) [Suplatast Tosylate] | 1.06 | 1.02 | 0.927 | 0.968
CN1CCN(CCOc2cc(OC3CCOCC3)c3c(Nc4c(Cl)ccc5c4OCO5)ncnc3c2)CC1 [Saracatinib (AZD0530)] | 0.821 | 0.782 | 0.586 | 0.735
C=CC(=O)Nc1ccc2ncnc(Nc3cccc(Br)c3)c2c1 | 0.927 | 0.921 | 0.248 | 0.317
CCC(=O)c1c(O)cc(O)cc1O [Flopropione] | 0.894 | 1.08 | 0.772 | 1.08
O=C(/C=C\n1cnc(-c2cc(C(F)(F)F)cc(C(F)(F)F)c2)n1)NNc1ccccn1 [Verdinexor (KPT-335)] | 0.137 | 0.13 | 0.162 | 0.121
